# Assay results as given in the RNAGym collection of RNA variant scans (doi:10.1093/nar/gkz1192).
# Read counts are not given, so values of variants with three or more changes are uncertain.
# B1: CPEB3 Ribozyme (parent)
# chain: UAACAGGGGGCCACAGCAGAAGCGUUCACGUCGCAGCCCCUGUCAGAUUCUGGUGAAUCUGCGAAUUCUGCUGUAUAUCUC
# Variants of: B1
# Assay: self-cleavage, relative activity (ratio to wild type); higher = more cleavage; in vitro, sequencing
# How it was run: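 CPEB3 self-cleaving ribozyme mutant libraries were made by rounds of error-prone PCR, barcoded, and transcribed in vitro with T7 RNA polymerase for 5 hours at 37°C. Cleavage occurred during transcription and a 15 min DNase I step before EDTA stop. RNAs were reverse transcribed with template switching and Illumina-sequenced, with DNA sequencing mapping barcodes to variants. Relative activity is the variant's cleaved/total read fraction divided by wild type's (minimum 5 reads), averaged across three batches.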
row,Variant,self-cleavage
1,UAACAGGGGGCCACAGCAGAAGCGUUCACGUCGCGGCCCCUGUCAGAUUCUGGUGAAUCUGCCUAUUCUGCUGUAUAUCGC [A35G G63C A64U U80G],0.87
2,UAACAGGGGGCCACAGCAGAAGCGUUCACGUCGCGGCCCCAGUCCGAUUCUGGUGACUCUGCGAAUUCUGCUGUAUAUCUC [A35G U41A A45C A57C],0.07
3,UAACAGGGGGCCACAGCAGAAGCGUUCACGUCGCGGCCCCCGACAGAUUCUGGUGAAUCUGCGAAUUCAGCUGUAUAUCCC [A35G U41C U43A U69A U80C],0.65
4,UAACAGGGGGCCACAGCAGAAGCGUUCACGUCGCGGCCCCUGUCAGAUUAUGGUGAAUCUGCGAAUUCUGCUGUAUAUCCC [A35G C50A U80C],1.17
5,UAACAGGGGGCCACAGCAGAAGCGUUCACGUCGCGGCCCCUGUCAGAUUCAGGUGAAUCUGCGAAUUCUGCUGUAUAUCCC [A35G U51A U80C],1.28
6,UAACAGGGGGCCACAGCAGAAGCGUUCACGUCGCGGCCCCUGUCAGAUCCUGGUGAAUCCGCGAAUUCUGCUGUAUAUCUC [A35G U49C U60C],0.22
7,UAACAGGGGGCCACAGCAGAAGCGUUCACGUCGCGGCCCCUGCCUGAUUCUGGUGAAUCUGCGAAUCCUGCUGUAUAUCUC [A35G U43C A45U U67C],0.52
8,UAACAGGGGGCCACAGCAGAAGCGUUCACGUCGCGGCCCCUGCCAGAUUCUGGUGGAUCUGCGAAUUCUGCUGCAUAUCUC [A35G U43C A56G U74C],0.95
9,UAACAGGGGGCCACAGCAGAAGCGUUCACGUCGCGGCCCCAGUCAGAUCCUGGUGAAUCUGCGAAUCCUGCUGUAUAUCUC [A35G U41A U49C U67C],0.15
10,UAACAGGGGGCCACAGCAGAAGCGUUCACGUCGCGGCCCCUGCCAGAUUCUGGUGAAUCCGCGAAUUCUGCUGUAUAUCUC [A35G U43C U60C],0.46
11,UAACAGGGGGCCACAGCAGAAGCGUUCACGUCGCGACCCCUGUCAGAUUCUGGUGGAUCCGCGAAUUCUGCUGUAUAUCUC [A35G G36A A56G U60C],0.25
12,UAACAGGGGGCCACAGCAGAAGCGUUCACGUCGCGGCACCUGUCAGAUUCUGGUGAGUCUGCGGAUUCUGCUGUAUAUCUC [A35G C38A A57G A64G],1.07
13,UAACAGGGGGCCACAGCAGAAGCGUUCACGUCGCGGCCCCUAACAGAUUCCGGUGAAGCUGCGAAUUCUGCUGUAUAUCUC [A35G G42A U43A U51C U58G],0.07
14,UAACAGGGGGCCACAGCAGAAGCGUUCACGUCGCGGCCCCGGUCAGAUUCAGGUGAAUCUGCGAACUCUGCUGUAUAUCUC [A35G U41G U51A U66C],0.16
15,UAACAGGGGGCCACAGCAGAAGCGUUCACGUCGCGGCCCCAGUCAGAUUCCGGUGAACCUGCGAAUUCUGCUGUAUAUCUC [A35G U41A U51C U58C],0.25
16,UAACAGGGGGCCACAGCAGAAGCGUUCACGUCGCGGCCCCAGUCAGAUUCUGGUGAAUCUGAGAAUUCUGCUGUAUAUCUC [A35G U41A C62A],0.09
17,UAACAGGGGGCCACAGCAGAAGCGUUCACGUCGCGCCCCCUGUCAGACUCUGGUGAAUCUGCGAAUCCUGCUGUAUAUCAC [A35G G36C U48C U67C U80A],0.07

row,Variant,self-cleavage
1,UAACAGGGGGCCACAGCAGAAGCGUUCACGUCGCGGCCCCUGUCAGAUUCUGGUGAAUCCGCGAAUUCUGCAGUAUAUCUC [A35G U60C U72A],0.56
2,UAACAGGGGGCCACAGCAGAAGCGUUCACGUCGCGGCCCCUGUAAGAUUCUGGUGAGUCUGCGAAUUCUGCUGUAUAUCUC [A35G C44A A57G],0.72
3,UAACAGGGGGCCACAGCAGAAGCGUUCACGUCGCGGCCCCUGUCAGAUUCUGGCGAAUCUGCGAAUUCCGCUGUAUAUCCC [A35G U54C U69C U80C],0.96
4,UAACAGGGGGCCACAGCAGAAGCGUUCACGUCGCGGCCCCUGACAGAUUCUGGAGAAUCUGAGCAUUCUGCUGUAUAUCUC [A35G U43A U54A C62A A64C],0.46
5,UAACAGGGGGCCACAGCAGAAGCGUUCACGUCGCGGCCCCUGUCAGAUUCUGGUGAAUCAGCGAAUUCUGCUGUAUACCUC [A35G U60A U78C],1.27
6,UAACAGGGGGCCACAGCAGAAGCGUUCACGUCGCGGCCCCGGUCAGAUUCUGGUGAAUCUGCGAAUUUCGCUGUAUAUCUC [A35G U41G C68U U69C],0.11
7,UAACAGGGGGCCACAGCAGAAGCGUUCACGUCGCGGCCCCUGUCAAAUUCUGGUGAAUCUGCGAAUUCUGCUGCAUAUCUC [A35G G46A U74C],1.19
8,UAACAGGGGGCCACAGCAGAAGCGUUCACGUCGCGGCCCCUGCCGGGUUCUAGUGAAUCUGCGAAUACUGCUGUAUAUCUC [A35G U43C A45G A47G G52A U67A],0.4
9,UAACAGGGGGCCACAGCAGAAGCGUUCACGUCGCGGGCCCAGUCAGAUUCUGGUGAAUCUGCGAAUUCUGCUGUAUAUCUC [A35G C37G U41A],0.15
10,UAACAGGGGGCCACAGCAGAAGCGUUCACGUCGCGGCCCCUGUCAGAUUCCGGUGAAUCUGCGAAUUCCGCUGUAUACCUC [A35G U51C U69C U78C],0.98
11,UAACAGGGGGCCACAGCAGAAGCGUUCACGUCGCGGCCCCUGCCAGAUUCUAGUGAAUCUGCGGAUUCUGCUGUAUAUCAC [A35G U43C G52A A64G U80A],1.26
12,UAACAGGGGGCCACAGCAGAAGCGUUCACGUCGCGGCCCUAGUCAGAUUCUGGUGAAUCUGUGAAUUCUGCUGUAUAUCUC [A35G C40U U41A C62U],0.19
13,UAACAGGGGGCCACAGCAGAAGCGUUCACGUCGCGGCCCCUGUCAGAUUCUGGUGAAUCUGCGAAUUCUGAGGUAUAUCUC [A35G C71A U72G],0.32
14,UAACAGGGGGCCACAGCAGAAGCGUUCACGUCGCGGCCCCUGUCAGAUUCUGGUGAAUCCGCGAAUUCUGCUGUAUGUCUC [A35G U60C A77G],1.18
15,UAACAGGGGGCCACAGCAGAAGCGUUCACGUCGCGGCCCCUGUCAGAUUCAGGUGAACCUGCGAAUUCUGCUGUAUAUCCC [A35G U51A U58C U80C],1.23
16,UAACAGGGGGCCACAGCAGAAGCGUUCACGUCGCGGACCCUGUCAGAUUCUGGUGAAUCUGCGGAUUCUGCUGUAUAUCUC [A35G C37A A64G],0.8
17,UAACAGGGGGCCACAGCAGAAGCGUUCACGUCGCGGCCCCAGUCAGGUUCUGGUGAAUCUGCGAAUUCUGCUGUAUAUCUC [A35G U41A A47G],0.31
